{"source": "PubChem BioAssay AID504333", "about": "(National Center for Advancing Translational Sciences (NCATS), 2011)", "note": "About 16,000 (4.4%) of roughly 360,000 compounds were called active. Inconclusive results, whose numbers are uncertain, are shown with a selection of clear calls. The call rests on the fitted dose curve; in most records, active means well fitted inhibition curve with a large enough effect; inconclusive means small, poorly fitted or top-dose-only effect; inactive means no such curve, though single readings can be large or run the other way. Potencies beside an inconclusive call are fits to weak or partial responses and may not hold up. Where a structure was tested more than once in an assay, its records may differ in their call. On the % scale 0 is the no-effect control and ±100 the full control effect; potency means the concentration at half of the fitted maximal effect; tags describe the fitted curve by direction and shape.", "data": [{"biological_target": "Bromodomain adjacent to zinc finger domain protein 2B (Homo sapiens) (UniProt Q9UIF8)", "sequence (Q9UIF8 whole entry, looked up, the tested form may be a part)": "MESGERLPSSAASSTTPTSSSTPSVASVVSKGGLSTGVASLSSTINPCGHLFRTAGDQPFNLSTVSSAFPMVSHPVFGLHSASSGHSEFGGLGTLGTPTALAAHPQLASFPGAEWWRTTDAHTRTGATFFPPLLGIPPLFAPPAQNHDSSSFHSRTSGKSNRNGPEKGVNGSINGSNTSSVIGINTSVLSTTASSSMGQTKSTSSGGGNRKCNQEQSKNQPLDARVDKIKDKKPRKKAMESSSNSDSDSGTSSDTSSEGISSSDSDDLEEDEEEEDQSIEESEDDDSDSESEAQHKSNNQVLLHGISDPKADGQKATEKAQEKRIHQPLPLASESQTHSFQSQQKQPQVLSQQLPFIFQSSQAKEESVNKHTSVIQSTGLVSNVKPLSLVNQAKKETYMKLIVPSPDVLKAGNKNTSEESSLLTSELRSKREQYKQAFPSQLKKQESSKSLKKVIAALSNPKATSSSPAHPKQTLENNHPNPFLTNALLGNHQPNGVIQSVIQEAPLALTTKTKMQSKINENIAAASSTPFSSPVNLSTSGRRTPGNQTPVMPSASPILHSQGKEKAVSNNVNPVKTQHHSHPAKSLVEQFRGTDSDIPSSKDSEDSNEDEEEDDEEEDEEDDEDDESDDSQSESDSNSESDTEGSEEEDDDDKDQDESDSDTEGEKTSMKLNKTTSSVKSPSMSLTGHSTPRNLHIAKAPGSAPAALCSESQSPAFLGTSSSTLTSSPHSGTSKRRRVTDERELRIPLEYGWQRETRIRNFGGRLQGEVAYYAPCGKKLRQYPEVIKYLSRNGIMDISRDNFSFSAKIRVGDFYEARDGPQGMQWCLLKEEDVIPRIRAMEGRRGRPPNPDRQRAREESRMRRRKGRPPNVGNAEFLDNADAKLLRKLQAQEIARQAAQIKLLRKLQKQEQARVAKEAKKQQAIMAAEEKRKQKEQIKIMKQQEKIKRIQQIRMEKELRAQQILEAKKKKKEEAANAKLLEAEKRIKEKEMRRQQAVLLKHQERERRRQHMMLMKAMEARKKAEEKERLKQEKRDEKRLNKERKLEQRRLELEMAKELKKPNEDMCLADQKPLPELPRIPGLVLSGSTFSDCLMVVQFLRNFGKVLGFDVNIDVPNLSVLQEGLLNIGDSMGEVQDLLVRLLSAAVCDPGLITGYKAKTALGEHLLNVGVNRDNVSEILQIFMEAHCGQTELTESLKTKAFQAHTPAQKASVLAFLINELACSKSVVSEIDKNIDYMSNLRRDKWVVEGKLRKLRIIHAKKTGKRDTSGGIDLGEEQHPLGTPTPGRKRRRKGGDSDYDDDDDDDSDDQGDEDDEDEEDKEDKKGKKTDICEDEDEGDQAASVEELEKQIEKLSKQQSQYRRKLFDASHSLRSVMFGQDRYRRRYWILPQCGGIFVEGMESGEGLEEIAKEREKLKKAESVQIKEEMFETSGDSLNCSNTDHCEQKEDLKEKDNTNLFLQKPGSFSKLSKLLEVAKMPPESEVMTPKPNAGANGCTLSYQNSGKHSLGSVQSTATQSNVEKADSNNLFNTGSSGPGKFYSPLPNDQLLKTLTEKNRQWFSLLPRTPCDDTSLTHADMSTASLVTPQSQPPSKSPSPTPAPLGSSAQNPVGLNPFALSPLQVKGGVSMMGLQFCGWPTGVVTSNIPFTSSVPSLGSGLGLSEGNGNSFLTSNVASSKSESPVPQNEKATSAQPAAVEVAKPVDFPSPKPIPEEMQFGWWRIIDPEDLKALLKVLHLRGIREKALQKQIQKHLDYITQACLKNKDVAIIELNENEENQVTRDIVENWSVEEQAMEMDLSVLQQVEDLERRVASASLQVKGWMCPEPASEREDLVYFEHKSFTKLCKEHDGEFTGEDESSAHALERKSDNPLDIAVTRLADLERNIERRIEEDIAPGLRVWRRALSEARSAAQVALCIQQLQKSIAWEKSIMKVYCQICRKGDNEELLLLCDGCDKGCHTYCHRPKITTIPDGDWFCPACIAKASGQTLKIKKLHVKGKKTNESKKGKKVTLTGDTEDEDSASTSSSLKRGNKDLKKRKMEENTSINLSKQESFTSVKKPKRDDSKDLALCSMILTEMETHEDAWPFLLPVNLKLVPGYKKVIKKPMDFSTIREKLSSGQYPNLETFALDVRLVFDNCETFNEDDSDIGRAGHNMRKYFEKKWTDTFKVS", "experiment": "qHTS Assay for Inhibitors of BAZ2B; further: nearly all actives have a fitted effect of over 60% in size", "conditions": "AlphaScreen BAZ2B-H3K14Ac peptide displacement; activity change, negative = inhibition: at 114 µM (top of the series) unless noted", "procedure,_shortened": "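AlphaScreen displacement: compounds (up to 110uM) incubated 30 min at room temperature with a preformed 50 nM BAZ2B/50 nM biotinylated H3K14Ac peptide complex in PBS pH 7.4 with Tween-20. Donor and acceptor beads at 10 ug/mL final added, 20 min light-protected before reading.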", "values": [{"smiles": "Nc1c(C=C2C=CC(=O)C=C2)c(=O)nc2sc(CC(=O)N3CCCCC3)nn12", "Potency": "inconclusive: 100 µM [inhibitor, single point]"}, {"smiles": "CC(C)n1c(NCc2cc(Cl)ccc2O)nc2ccccc21", "Potency": "inconclusive: 89.1 µM [inhibitor, single point]"}, {"smiles": "O=C(CSc1nnc(Cc2ccccc2)o1)c1ccc(F)cc1", "activity change, negative = inhibition": "inactive: -3.02%"}, {"smiles": "O=C(O)c1cccc(Sc2cc(Cl)ccc2C(=O)O)c1", "Potency": "active: 56.2 µM"}, {"smiles": "N#Cc1nc(COc2ccccc2F)oc1NCc1ccc(F)cc1", "Potency": "inconclusive: 39.8 µM [inhibitor, partial curve]"}, {"smiles": "N#CC(C#N)=Cc1cc2ccccc2nc1N1CCCCC1", "Potency": "active: 39.8 µM"}, {"smiles": "COc1ccccc1Nc1cc(C)nc2c(C)ccc([N+](=O)[O-])c12", "Potency": "active: 11.2 µM"}, {"smiles": "CCC(C)C(Nc1ccc(C(=O)OC)cc1[N+](=O)[O-])C(=O)OC", "note": "(configuration not stated)", "Potency": "inconclusive: 31.6 µM [inhibitor, partial curve]"}, {"smiles": "CSc1ccc(C(=O)N2CCC(CCC(=O)NCc3ccc(F)cc3)CC2)cc1", "activity change, negative = inhibition": "inactive: 0.635%"}, {"smiles": "CCn1c(C)c(C)c2cc(C(=O)NC3CCCCCC3)ccc21", "Potency": "active: 35.5 µM"}, {"smiles": "Cc1ccc(S(=O)(=O)Oc2ccccc2N2C(=O)C3CC=CCC3C2=O)cc1", "note": "(configuration not stated)", "Potency": "inconclusive: 89.1 µM [inhibitor, single point]"}, {"smiles": "Cc1cccc(Cn2c(C)c(C)c3cc(C(=O)NCCN4CCOCC4)ccc32)c1", "Potency": "active: 56.2 µM"}, {"smiles": "Cc1ccc(NC(=O)CSc2n[nH]c(C)c2[N+](=O)[O-])cc1", "activity change, negative = inhibition": "inactive: 6.69%"}, {"smiles": "Cc1ccc([N+](=O)[O-])cc1N/C=C/C(=O)c1ccco1", "Potency": "inconclusive: 89.1 µM [inhibitor, partial curve]"}, {"smiles": "C/C(=N\\NC(=O)Cc1ccccc1)c1ccc(Cl)s1", "activity change, negative = inhibition": "inactive: -4.73%"}, {"smiles": "CCN(C(=O)C(C)N1C(=O)/C(=C/c2ccco2)SC1=S)C1CCS(=O)(=O)C1", "note": "(configuration not stated)", "Potency": "active: 44.7 µM"}, {"smiles": "Cc1ccc(S(=O)(=O)NNC(=O)C2CC=CCC2C(=O)O)cc1", "note": "(configuration not stated)", "activity change, negative = inhibition": "inactive: -18.6%"}, {"smiles": "CCCCN(Cc1ccco1)C(=O)C1CCCN(c2ncnc3c2nc2n3CCCCC2)C1", "note": "(configuration not stated)", "Potency": "inconclusive: 50.1 µM [inhibitor, partial curve]"}, {"smiles": "Cn1ccnc1SCC(=O)c1cc2ccccc2o1", "Potency": "inconclusive: 50.1 µM [inhibitor, partial curve]"}, {"smiles": "O=C1CCCc2c1cc(-c1ccccc1)n2-c1ccccc1", "Potency": "active: 25.1 µM"}, {"smiles": "CCc1cc[n+](C2=C([O-])c3ccccc3C(=O)/C2=N\\S(=O)(=O)c2cccs2)cc1", "Potency": "inconclusive: 50.1 µM [inhibitor, partial curve]"}, {"smiles": "CC(=O)c1ccc(OCCCC(=O)NC2=NCCS2)cc1", "Potency": "inconclusive: 100 µM [inhibitor, single point]"}, {"smiles": "O=S(=O)(NC(=S)c1ccccc1)c1ccc(F)cc1", "activity change, negative = inhibition": "inactive: -6.69%"}, {"smiles": "Cc1cc(C)cc(NC(=O)CN(c2cccc(C)c2C)S(=O)(=O)c2ccccc2)c1", "activity change, negative = inhibition": "inactive: 2.95%"}, {"smiles": "CCc1cc2c(=O)c(-c3nc4ccccc4n3C)c(COCC(=O)O)oc2cc1O", "Potency": "inconclusive: 79.4 µM [inhibitor, single point]"}, {"smiles": "COc1cccc(NC(=S)N2CCn3cccc3C2c2cccnc2)c1", "note": "(configuration not stated)", "Potency": "active: 50.1 µM"}, {"smiles": "COc1cc2c(cc1OC)C(c1cccc(C)c1)CC(=O)N2", "note": "(configuration not stated)", "Potency": "inconclusive: 100 µM [inhibitor, partial curve]"}, {"smiles": "Cc1ccccc1Nc1nc2ccccc2s1", "activity change, negative = inhibition": "inactive: 2.37%"}, {"smiles": "COc1ccc2c(CNCCc3ccccc3OC)c(C(=O)O)n(Cc3ccc(F)cc3Cl)c2c1", "Potency": "inconclusive: 35.5 µM [inhibitor, full curve]"}, {"smiles": "CCC(=O)NC(c1cccs1)c1cc([N+](=O)[O-])c2cccnc2c1OC", "note": "(configuration not stated)", "Potency": "inconclusive: 44.7 µM [inhibitor, partial curve]"}, {"smiles": "Nc1cc(-c2ccc(Br)cc2)nn1S(=O)(=O)c1cccc2nsnc12", "Potency": "inconclusive: 31.6 µM [inhibitor, full curve]"}, {"smiles": "CCC(C)Sc1cccc(-c2nc3cc(C)ccn3c2NCc2ccccc2)c1", "note": "(configuration not stated)", "Potency": "inconclusive: 89.1 µM [inhibitor, single point]"}, {"smiles": "CCCCn1c(-c2cccs2)nc2nc3ccccc3nc21", "activity change, negative = inhibition": "inactive: 25% [at 57.1 µM]"}, {"smiles": "Cc1cc2c(cc1S(=O)(=O)CCC(=O)N(C)Cc1ccccc1)OCC(=O)N2", "Potency": "active: 12.6 µM"}, {"smiles": "O=C1C(=O)N(CCO)C(c2cccc(F)c2)/C1=C(\\O)c1ccc(Cl)cc1", "note": "(configuration not stated)", "Potency": "inconclusive: 79.4 µM [inhibitor, single point]"}, {"smiles": "CC(=O)Nc1ccc(S(=O)(=O)N/N=C/c2ccc(C)o2)cc1", "Potency": "inconclusive: 50.1 µM [inhibitor, partial curve]"}, {"smiles": "O=C(c1ccccn1)N1N=C2/C(=C/c3ccccc3)CCCC2C1c1ccccc1", "note": "(configuration not stated)", "Potency": "inconclusive: 44.7 µM [inhibitor, partial curve]"}, {"smiles": "COc1ccc(C(c2oc(CO)cc(=O)c2O)c2oc(CO)cc(=O)c2O)cc1OC", "Potency": "active: 50.1 µM"}, {"smiles": "Cc1c(CCC(=O)NCCCCCC(=O)O)c(=O)oc2cc3occ(-c4ccccc4)c3cc12", "Potency": "inconclusive: 89.1 µM [inhibitor, single point]"}, {"smiles": "Cc1ccc(S(=O)(=O)N2CCCCC2)cc1C(=O)Nc1ccc(S(=O)(=O)Nc2ncccn2)cc1", "Potency": "inconclusive: 79.4 µM [inhibitor, partial curve]"}, {"smiles": "O=[N+]([O-])c1cccc(/C=N/N2CCN(Cc3ccccc3)CC2)c1", "Potency": "active: 25.1 µM"}, {"smiles": "Cc1cc(-c2ccc(C)c(S(=O)(=O)NCCCN3CCN(c4ccccc4)CC3)c2)on1", "Potency": "inconclusive: 39.8 µM [inhibitor, partial curve]"}, {"smiles": "Cc1cc(OCC(=O)NCCCn2ccnc2)c2c(C)c(C)c(=O)oc2c1", "activity change, negative = inhibition": "inactive: -26.5%"}, {"smiles": "O=C1N(Cc2ccc3c(c2)OCO3)c2ccccc2C1(O)c1c[nH]c2ccccc12", "note": "(configuration not stated)", "Potency": "inconclusive: 35.5 µM [inhibitor, partial curve]"}, {"smiles": "COc1cccc(-n2c(SCc3cc(=O)oc4cc(O)c(O)cc34)nc3ccccc3c2=O)c1", "Potency": "active: 35.5 µM"}, {"smiles": "O=C(N/N=C/c1ccccc1F)C(=O)N1CCCCCC1", "activity change, negative = inhibition": "inactive: 12.3%"}, {"smiles": "CCn1cnc2cc(NC(=O)c3ccc(C)cc3)ccc21", "activity change, negative = inhibition": "inactive: -0.279%"}, {"smiles": "N#C/C(=C\\c1ccc([N+](=O)[O-])o1)C(=O)Nc1ccc(F)cc1", "Potency": "active: 44.7 µM"}, {"smiles": "COc1ccc(CC(=O)OCC(=O)Nc2ccc(Cl)cn2)cc1", "Potency": "inconclusive: 89.1 µM [inhibitor, single point]"}, {"smiles": "Cc1ccc(C2Nc3cccc4cccc(c34)N2)cc1", "Potency": "inconclusive: 50.1 µM [inhibitor, partial curve]"}, {"smiles": "CCOc1ccc(NC(C(=O)Nc2cccc(C(C)=O)c2)c2ccccc2)cc1", "note": "(configuration not stated)", "Potency": "active: 39.8 µM"}, {"smiles": "Cc1ccccc1-c1nnc(SCC(=O)NC2CCCC2)n1C", "activity change, negative = inhibition": "inactive: 5.92%"}, {"smiles": "COc1cccc(NC(=O)NC2CCN(CC(=O)Nc3ccccc3[N+](=O)[O-])CC2)c1", "activity change, negative = inhibition": "inactive: -9.08%"}, {"smiles": "CCCCOC(=O)C1[C@H]2C(=O)N(Cc3cccs3)C[C@]23C=C[C@H]1O3", "note": "(some centres not stated)", "Potency": "active: 79.4 µM"}, {"smiles": "N/C(=N\\OC(=O)/C=C/c1ccccc1Cl)c1ccccn1", "Potency": "active: 79.4 µM"}, {"smiles": "Cc1[nH]c2ccccc2c1/C=N/NC(=S)NC(C)C", "Potency": "inconclusive: 44.7 µM [inhibitor, partial curve]"}, {"smiles": "COc1ccc(NS(=O)(=O)c2cc3c(cc2C)N(C)CCO3)cc1", "Potency": "active: 50.1 µM"}, {"smiles": "COc1ccc(Cl)cc1NC(=S)NNC(=O)c1cccnc1", "activity change, negative = inhibition": "inactive: 4.57%"}, {"smiles": "CCCn1c(C(C)NS(=O)(=O)c2ccccc2)n[nH]c1=S", "note": "(configuration not stated)", "activity change, negative = inhibition": "inactive: -12.4%"}, {"smiles": "CCOc1cc(C)c(Cl)cc1S(=O)(=O)N(CC)CC", "Potency": "inconclusive: 7.94 µM [inhibitor, partial curve, poor fit]"}, {"smiles": "CCn1cc2nc(SCc3ccccc3)n(Cc3ccc(C)cc3)c(=O)c2n1", "activity change, negative = inhibition": "inactive: -3.48%"}, {"smiles": "CC(=O)Nc1ccc(Nc2ccc(S(=O)(=O)C(F)(F)F)cc2[N+](=O)[O-])cc1", "Potency": "inconclusive: 79.4 µM [inhibitor, single point]"}, {"smiles": "COc1ccc(S(=O)(=O)NCCSCc2ccco2)cc1", "Potency": "active: 50.1 µM"}, {"smiles": "CCOc1ccc(OCCn2ccnc2)cc1", "Potency": "active: 50.1 µM"}, {"smiles": "Cc1ccc(NC(=O)c2cc(N3C(=O)C4CCCCC4C3=O)ccc2N2CCOCC2)cc1", "note": "(configuration not stated)", "activity change, negative = inhibition": "inactive: -10.9%"}, {"smiles": "COc1cc(/C=C2\\C(=N)N3N=C(N4CCOCC4)SC3=NC2=O)ccc1OC(=O)c1ccccc1", "Potency": "active: 50.1 µM"}, {"smiles": "Cc1ccc2occ(CN3CCN(Cc4ccccc4)CC3)c(=O)c2c1", "Potency": "inconclusive: 100 µM [inhibitor, single point]"}, {"smiles": "CCOc1ccccc1OCCOCCN1CC(C)OC(C)C1", "note": "(configuration not stated)", "Potency": "inconclusive: 89.1 µM [inhibitor, single point]"}, {"smiles": "Cc1cnn(C(=O)c2cc(-c3ccccn3)nc3ccc(Cl)cc23)c1", "Potency": "active: 56.2 µM"}, {"smiles": "COc1cc(/C=C2/C(=N)N3OC(C)=CC3=NC2=O)ccc1OC(=O)c1ccco1", "activity change, negative = inhibition": "inactive: -4.98%"}, {"smiles": "CCn1ncc(CNC(=O)CCCSc2nc(-c3ccco3)cc(C(F)(F)F)n2)c1C", "activity change, negative = inhibition": "inactive: -9.14%"}, {"smiles": "CCn1c(SCC(=O)OC)nc2sc3c(c2c1=O)CCC3", "Potency": "active: 50.1 µM"}, {"smiles": "Nc1ccc(N2CCN(C(=O)c3ccco3)CC2)cc1", "Potency": "inconclusive: 50.1 µM [inhibitor, partial curve]"}, {"smiles": "COc1ccc(N2CCN(Cc3cc(=O)oc4cc(C)c(Cl)c(C)c34)CC2)cc1", "Potency": "inconclusive: 50.1 µM [inhibitor, partial curve]"}, {"smiles": "COc1ccc(NC(=O)Nc2ccc(N(C)C)cc2)cc1", "Potency": "inconclusive: 39.8 µM [inhibitor, full curve]"}, {"smiles": "O=C(c1cc(O)c(O)c([N+](=O)[O-])c1)c1ccccc1F", "Potency": "inconclusive: 35.5 µM [inhibitor, partial curve]"}, {"smiles": "COc1cc2nc(SCc3ccc(C(F)(F)F)cc3)n(Cc3cccs3)c(=N)c2cc1OC", "activity change, negative = inhibition": "inactive: -6.36%"}]}]}
